# Laboratory results from the supplement of paper PMC11417369.
# ± gives the standard deviation of the averaged measurements. This is one part of the list.
# System: PfAP2-G AP2 domain (GST-tagged)
# Experiment: gcPBM binding intensity (ln(normalized median fluorescence intensity)); higher = stronger DNA binding
# In short: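 The binding buffer was 1× PBS containing 1% milk, 0.2 mg/ml BSA, 0.5% salmon testes DNA and 0.03% Triton X-100. In it, GST-tagged P. falciparum DNA-binding domains expressed in E. coli were applied for 1 h to an Agilent 4 × 180k array of primer-extended double-stranded 36-bp intergenic genomic probes plus negative controls. Binding intensity, read with Alexa488 anti-GST antibody and a 488 nm scan, is the highest Masliner-normalised natural-log median intensity across replicate spots of either probe orientation.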
row,Sequence,gcPBM binding intensity (ln)
1,ATATAATAGAAGTGTACACACATATTTATGTCTGTA [CACACA_site3121],11.5 ± 0.74
2,AAGCATGGATATTTTACACACATTTCCACGTAACAA [CACACA_site3141],10.16 ± 0.085
3,ATACATTTTTTTTATACGCACACGTCATACTTTTAA [CACACA_site1638],10.5 ± 0.2
4,CTAGCAAATACATACACACACACACCGATACATATA [CACACA_site9164],10.04 ± 0.078
5,ATATTTATTTATATTACACACATGTGCAATTAAACT [CACACA_site6928],10.1 ± 0.16
6,TTTCTTAAAAAAAAAAAAAAAAGAAGATAAATAAAA [CACACA_negctrl_site289],9.55 ± 0.057
7,TTTAACTTATTCAATGCACACATTTTAATAAGATAT [CACACA_site1967],9.99 ± 0.24
8,ACAAGACAGATATATACACACATACATACATACATA [CACACA_site7472],10.06 ± 0.057
9,ATATAAGTTTATATATGTACATATATATATTATATA [XGTACX_site2068],11.1 ± 0.66
10,GTATTTTTTTTAATATGTACATATAAAATATTTTAT [XGTACX_site8329],11.3 ± 0.67
11,AATACAATTTATAACACACACACAATAATACATATA [CACACA_site1252],10.1 ± 0.13
12,GAGGATATATTATATGTACACACATATATAACGGAT [CACACA_site8361],11.4 ± 0.8
13,AATTCATTTAAAAGTTGTACAAGCTTAATAAAAAAA [XGTACX_site6073],11.4 ± 0.91
14,ATATACACATAAAGTAGTACACCTGAAATTTTTTTT [XGTACX_site2951],11.6 ± 0.79
15,AATTAAAAATATAAATGTACATATATGTAAAACTTT [XGTACX_site123],11 ± 0.54
16,CCCATGCATTTTTGCACACACATATATATATAAATA [CACACA_site1430],10.2 ± 0.3
17,AATATATGAATTAGAAGTACAAATAAATATTTATTT [XGTACX_site2062],11.4 ± 0.93
18,TTAATCATAAAAGTCACACATAATAAGAAAAAGCTT [CACACA_site4616],10.01 ± 0.035
19,GTGCATATATGATATACACACAATATAATAGTATGT [CACACA_site2460],10.1 ± 0.2
20,TGTAGTCTGGAGAAAAGTACATAGTATCTGATAACC [XGTACX_site2018],11.2 ± 0.74
21,CCACATTTTACAGACACACACAATTTATATTACGGT [CACACA_site1894],10.2 ± 0.18
22,AAAAATTTATTTTTAGGTACACAATTGAATTATTTA [XGTACX_site7008],11.2 ± 0.82

row,Sequence,gcPBM binding intensity (ln)
1,AAGAGTTTGAAGTTTGCACACTACGTTAAAAATAAA [CACACA_site3939],10 ± 0.21
2,AATATAATGTAATATACACACATATATTTCTCTTTT [CACACA_site5451],9.855 ± 0.064
3,ATAATAAAAAAAAAATGTACATAAATCTAAAATCCT [XGTACX_site5823],11.4 ± 0.86
4,ATATATTTAAATAAAAGTACGTAAAGGTATATTTAA [XGTACX_site8088],11.2 ± 0.69
5,CCTCCCATTTTTACACGTACACATTTAAAATAGACT [XGTACX_site5640],11.7 ± 1.1
6,TGAAGAAAATATTAATGTACATATTATATATATATA [XGTACX_site5497],11.1 ± 0.56
7,TATTAGTCGAATGATGTACACACATACAAAACATTT [CACACA_site9331],11.4 ± 0.89
8,AAAAAAAAAAAGAACTCACACATAATAATGTATATG [CACACA_site4974],9.755 ± 0.049
9,TTAAAATTATATCTGTGTACATAAATTGTGTAACTA [XGTACX_site1966],11.3 ± 0.71
10,TATTATAAATTAATTTTAAACTTTATTATTATGATA [GTGCAC_negctrl_site389],9.4 ± 0.14
11,GTAATGTCGTCGTTTTGTACATATTTTTATAAAAAG [XGTACX_site2688],11.1 ± 0.57
12,TTTTTAATGATCAGACGTACAGTTATGAAGAAATTT [XGTACX_site6394],11.6 ± 0.8
13,TTGTGTCATATATTTTGTAATCAAAATAATTTTATT [TGCATGCA_negctrl_site307],10.1 ± 0.37
14,TTTTTGTTTCGTTACGCATGCCAAAAGTAAAAATAT [TGCATGCA_site536],10.3 ± 0.28
15,ATTTAAAAAAAAATGGCACACATTTTAATTTTATGT [CACACA_site1740],10.2 ± 0.16
16,ATTAAAATAATATAAACACACATATACTTTTTTCTA [CACACA_site565],9.98 ± 0.16
17,TATTGTTCGTTTAAGGTGCTATTGTTTGCAAAATAT [GTGCAC_site9412],10.3 ± 0.3
18,AAGAGGTTATTACATTCACATAACATCAATATACGT [GTGCAC_negctrl_site264],10 ± 0.13
19,ATAATGTTCCTATGATGTACTTATAATTATCATTTT [XGTACX_site4017],11.3 ± 0.76
20,TGGGAAAACCCCAGAAGTACGCTTAATATAAAAAAT [XGTACX_site697],11.3 ± 0.78
21,ATGCATAAAAGAAATACACACATAAATATGTAAATA [CACACA_site7087],9.94 ± 0.11
22,TTTAAAACCCTAAAAAAAAAAAAAAAAAAAAAAAAA [CACACA_negctrl_site1212],9.72 ± 0.49

row,Sequence,gcPBM binding intensity (ln)
1,GTTTGTATAGGTTCATGTACAAAAAAAAAAAAAAAA [XGTACX_site537],11 ± 0.83
2,ACAAAAATATATATATGTACATATATCATCATAATA [XGTACX_site5850],11.1 ± 0.64
3,TTTATTAGAACCGTACGTACATAGTTATTTTTTCAA [XGTACX_site8848],11.5 ± 0.83
4,ATTCATATGTGACACACACACACACGCATAAAAAAA [CACACA_site7515],10.7 ± 0.53
5,TAGCGTACATTTCATTGTAATCATAAAAAATAAAGA [CACACA_negctrl_site447],11.4 ± 1.2
6,TACATATTTTTTATATGTACATATTTTTTATGTGTA [XGTACX_site442],11.4 ± 0.77
7,TATGCTATAATACTCTGTACTTACTAATTTAATAAT [XGTACX_site5926],11.3 ± 0.76
8,ATAAAATAAATGAAAAATGTAAAATGAGAAAAAAAT [CACACA_negctrl_site1026],10.07 ± 0.028
9,TATATATATATATGGGTGCATTTTTTTGTCCATGTA [GTGCAC_site9868],10.7 ± 0.6
10,ATTTATTTATATTTAGTGCAATACTATTTTTAAATA [GTGCAC_site9886],10.1 ± 0.23
11,ATTTTATCATAATAAAGTACAAAGATGCAAATAATA [XGTACX_site2270],11.1 ± 0.67
12,TTTTATCTCATTCATCAAAATCACCGGAATCATATA [CACACA_negctrl_site357],9.875 ± 0.064
13,TAATAAACAAATTCCAAAATAAATTAAAAGGAAAAT [CACACA_negctrl_site1404],9.555 ± 0.035
14,AGGTATATATTACAAGTGCACTGTAAAATTAAAATT,10.3 ± 0.26
15,TAAGTATACGCATACACACACACACCCAAAAAAAAA [CACACA_site425],10.3 ± 0.24
16,CATTCAATTGAAAAATGTACAAAAATAAACATATGC [XGTACX_site1663],10.8 ± 0.35
17,AATAGGAAGACTATTTTGTATTTGATTTTTTATTCC [GTGCAC_negctrl_site453],9.73 ± 0.12
18,TAAACATACCTATACACACACACACGCACACGCACA [CACACA_site6372],10.3 ± 0.26
19,TTTCTATATTGGCATACATGCAAGAACGAAAAGATT [TGCATGCA_site117],10.2 ± 0.29
20,TAAAAATTGCACAGAAGTACAGTATAAATATATATA [XGTACX_site3421],11.5 ± 1
21,ATAATATATGAGCAATGTACATATTTCTCATTGCAC [XGTACX_site2253],10.9 ± 0.41
22,GTTCCAGGCATTCGTGCGCACAAATAGAAACAATTA [GTGCAC_site9824],10.6 ± 0.41

row,Sequence,gcPBM binding intensity (ln)
1,TTATATTAATATATATGTACATATATTTTTTTTATA [XGTACX_site6981],11.3 ± 0.74
2,TTGTGAAACATCAAGAAAAAGAAATAATAAAAAGAA [GTGCAC_negctrl_site38],9.705 ± 0.092
3,GTTGAACATATATGCACACACATAAAATAAAAAAAA [CACACA_site2413],10.3 ± 0.42
4,ACGTAAGCGAATAAAAGTACATATATTAAAAAAAAA [XGTACX_site4458],11.4 ± 0.96
5,TTCTTAAGGAACGAACGTACAGAATAAAAAGTAAAA [XGTACX_site4294],11.2 ± 0.66
6,AAAAGGTATCCACATACGCACACCAAAAAAAAAAAT [CACACA_site347],10.7 ± 0.67
7,TCTTTTTTTTTTTTTTTTTTTTTTTATTTATTCATA [CACACA_negctrl_site1827],9.785 ± 0.092
8,ATACAACAATGTGAATTATATATGGATGGAGAATGA [GTGCAC_negctrl_site148],10 ± 0.028
9,AAATAAATCTATAATACACACAAAAATATAAAATGC [CACACA_site7700],10.04 ± 0.021
10,CTATTATTTTTAAATTGTACTATAACAAAATGTATA [XGTACX_site3916],10.8 ± 0.59
11,ATATATATGTTTTATAGTACACACATAAATGGACAT [XGTACX_site4538],11.5 ± 0.97
12,TTAAGAAATAACAATGCACACATTTAGGTCTTTTAT [CACACA_site3285],9.88 ± 0.14
13,ATAACTTGTATATATACACACACACCCTTTCTTTTT [CACACA_site8600],10.2 ± 0.11
14,TATATTATATTATACATACACACCCATATAATATGT [CACACA_site869],10.2 ± 0.11
15,TTAGATATGTGTAAGGGTACAAAATACTTTACATTT [XGTACX_site8204],11 ± 0.66
16,CTTCAATATATTCTTACACACTTAAAAAAAAAAATA [CACACA_site4287],9.97 ± 0.47
17,GTGTTTTTATTATTTTGTACACATATATTTAATATT [XGTACX_site2109],11.5 ± 0.87
18,TTTTTTTTGTAATACGCATGCTAAAAATATTTATAA [TGCATGCA_site656],10.4 ± 0.53
19,CGTATTTATAGAATTACACACCATATTGTAATTATT [CACACA_site7722],9.985 ± 0.064
20,TTTTCGATGTTGGTAGGAAGTTTGGTACACGTAGTA [TGCATGCA_negctrl_site145],11.1 ± 0.8
21,ATTTAAATAAGATATACACACAAGTAGAAGACTATG [CACACA_site806],10.2 ± 0.13
22,TTATATTATTCGTGTGTGCACGATATTTCATAATTG [GTGCAC_site9767],10.3 ± 0.25
